In all, about 310,000 compounds went through this assay and about 2,200 (0.71%) showed an effect of 50% or more. The effect is printed as a negative number. The list shows a part of the results.
Molecular target: human ether-à-go-go-related gene (hERG) potassium channel (human, UniProt Q12809)
Test: primary screen, population patch clamp on CHO cells stably expressing hERG

Chain of human ether-à-go-go-related gene (hERG) potassium channel (Q12809 whole entry, looked up): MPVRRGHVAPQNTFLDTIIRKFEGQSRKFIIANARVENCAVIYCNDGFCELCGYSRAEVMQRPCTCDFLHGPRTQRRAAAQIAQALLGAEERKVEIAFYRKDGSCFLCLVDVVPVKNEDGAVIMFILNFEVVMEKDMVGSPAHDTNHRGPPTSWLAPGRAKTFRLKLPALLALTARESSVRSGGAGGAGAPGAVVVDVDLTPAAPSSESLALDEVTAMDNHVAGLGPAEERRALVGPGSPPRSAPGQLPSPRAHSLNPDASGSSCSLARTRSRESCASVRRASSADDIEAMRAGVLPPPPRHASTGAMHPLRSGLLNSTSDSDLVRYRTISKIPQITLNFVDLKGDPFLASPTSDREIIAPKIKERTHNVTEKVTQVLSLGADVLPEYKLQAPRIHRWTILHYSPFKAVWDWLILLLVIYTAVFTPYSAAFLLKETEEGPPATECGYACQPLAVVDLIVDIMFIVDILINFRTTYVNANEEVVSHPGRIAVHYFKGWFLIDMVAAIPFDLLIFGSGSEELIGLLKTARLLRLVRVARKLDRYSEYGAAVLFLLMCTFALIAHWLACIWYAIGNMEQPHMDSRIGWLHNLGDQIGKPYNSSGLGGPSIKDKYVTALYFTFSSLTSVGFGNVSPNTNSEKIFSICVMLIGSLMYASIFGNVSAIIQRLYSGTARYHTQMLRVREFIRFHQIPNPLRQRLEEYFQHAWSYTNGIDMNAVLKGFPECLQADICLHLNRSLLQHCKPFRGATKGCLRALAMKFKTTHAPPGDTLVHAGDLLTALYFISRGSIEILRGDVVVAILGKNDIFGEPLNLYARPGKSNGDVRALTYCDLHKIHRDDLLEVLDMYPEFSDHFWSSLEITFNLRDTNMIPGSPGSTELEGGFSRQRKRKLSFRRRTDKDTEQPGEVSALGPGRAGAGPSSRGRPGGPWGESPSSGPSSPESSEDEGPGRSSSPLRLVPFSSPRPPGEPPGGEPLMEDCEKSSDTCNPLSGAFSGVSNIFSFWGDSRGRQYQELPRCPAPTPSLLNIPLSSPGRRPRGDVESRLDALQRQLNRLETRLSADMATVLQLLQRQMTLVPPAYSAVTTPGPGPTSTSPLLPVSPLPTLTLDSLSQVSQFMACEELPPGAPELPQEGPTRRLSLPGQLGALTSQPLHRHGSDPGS

SMILES | hERG current change (%, negative = inhibition) at 1uM
COc1ccc2[nH]c(=O)c(C3c4cc(OC)c(OC)cc4CCN3C(=O)c3ccco3)cc2c1 (centres unmarked) | 7.6%
O=C(NCc1ccc(Cl)cc1)C1CCCN(C(=O)c2ccc(Cl)cc2)C1 (centres unmarked) | 0.75%
O=S(=O)(Nc1ncccn1)c1ccc(NC(=S)Nc2cccc(Cl)c2)cc1 | 13.2%
Cc1cc(O)cc(=O)n1C | 8.9%
Cc1nnc(SC(C)C(=O)NCC2CCCO2)n1-c1ccccc1 (centres unmarked) | 3.76%
COc1ccc(C(=O)N2CCOC2CNC(=O)C(=O)NCc2ccccc2Cl)cc1 (centres unmarked) | 11.8%
Br.COc1ccc(C(=O)Cn2c(NCCCO)nc3ccccc32)cc1OC | 8.36%
CN(C)CC(=O)Nc1ccc(Oc2ccc(Cl)cc2)cc1.Cl | 13.9%
O=C(CCN1C(=O)/C(=C/c2ccc(Cl)cc2)SC1=S)NCCCn1ccnc1 | 13.2%
Cc1nnc(N(Cc2ccccc2)C(=O)c2cnccn2)s1 | 13.6%
C=CCn1c(SCc2ccc(Cl)cc2)nc2cc(C(=O)N3CCC(C(N)=O)CC3)ccc2c1=O | 8.65%
O=[N+]([O-])c1ccc(Sc2ccccn2)nc1 | 13.3%
COc1ccccc1CN1CC(C(=O)N(C)CCCn2nc(C)cc2C)CCC1=O (centres unmarked) | 3.08%
Cc1ccc(S(=O)(=O)N2CCOCC2)cc1NC(=O)c1cc2c(s1)CCC2 | -1.73%
COc1cccc(Nc2c3c(nc4c(-c5ccccc5)c(C)nn24)CCC3)c1 | -5.67%
CCc1c(O)nc(SCC(=O)Nc2cc(C)on2)n(-c2ccccc2)c1=O | 8.66%
N#CCC(=O)Nc1sc2c(c1C(N)=O)CCCC2 | 5.9%
O=C(NCCc1ccc(F)cc1)Nc1ccc([N+](=O)[O-])cc1 | 6.86%
N#Cc1cccc(C(=O)OCC(=O)c2ccc3c(c2)NC(=O)CO3)c1 | 10.8%
Cc1c(CC(=O)O)c(=O)oc2cc(OCc3ccc(Br)cc3)ccc12 | 13.3%
CN(C)S(=O)(=O)c1cccc(NC(=O)COC(=O)c2ccc3c(c2)OCO3)c1 | 4.46%
COc1ccc(/C=C/C(=O)Nc2ccccc2C(F)(F)F)cc1OC | 2.69%
Cc1cc(C)cc(NC(=O)CN2CCN(c3ncccn3)CC2)c1 | 0.335%

SMILES | hERG current change (%, negative = inhibition) at 1uM
O=C(NCc1ccccc1Cl)c1ccc(S(=O)(=O)N2CCCC2)cc1 | 9.13%
COc1ccc(C(=O)Nc2sc3c(c2C(=O)NCc2ccco2)CCCC3)cc1OC | -7.05%
Cc1cc(N2C(=O)CC(N3CCC(n4c(=O)[nH]c5ccccc54)CC3)C2=O)no1 (centres unmarked) | 3.9%
COc1ccc(C(=O)NCCn2ccc3ccccc32)cc1OC | 9.32%
Cc1ccnc(NS(=O)(=O)c2ccc3c(c2)CCO3)c1 | 14.4%
CN1CCN(c2ccccc2NC(=O)c2ccc(N3CCCC3)c([N+](=O)[O-])c2)CC1 | 6.78%
COc1ccc(/C=C/CN2CCCC(CO)(Cc3cccc(Cl)c3)C2)cc1 (centres unmarked) | 3.25%
Cc1cc(NC(=O)CCC(=O)N(CCC(C)C)CC(=O)NCC2CCCO2)no1 (centres unmarked) | 11.3%
Cc1ccc(CN(C(=O)c2ccccc2[N+](=O)[O-])C2CCS(=O)(=O)C2)o1 (centres unmarked) | 8.92%
COc1cc(-n2nc(C)c3c2OC(N)=C(C#N)C3c2ccccc2)c(Cl)c(Br)c1O (centres unmarked) | 1.08%
O=C(Cc1ccc(Br)cc1)NCCc1ccccc1 | 19.3%
CN(C)P(=NC(=S)c1cccn1C)(N(C)C)N(C)C | 14.6%
O=C(O)CC(NC(=O)C1CCCCC1)c1cc([N+](=O)[O-])ccc1Cl (centres unmarked) | 7.05%
Cc1ccc(NC(=O)CSc2ncccn2)cc1S(=O)(=O)N1CCCCC1 | -5.01%
CCOC(=O)CC1ON(C)C(=O)N1c1ccc([N+](=O)[O-])cc1 (centres unmarked) | 1.71%
COc1ccc(CNC(=O)C2CCCN2S(=O)(=O)c2ccc(F)cc2)cc1 (centres unmarked) | 6.31%
CC(c1ccccc1)n1c(-c2ccccc2F)n[nH]c1=S (centres unmarked) | 5.23%
COc1ccc(/C=N/NC(=S)SC)cc1OC | 6.55%
COC(=O)Cn1c(=O)c2c(n(Cc3ccccc3)c1=O)N/C(=C/c1ccc(Br)cc1)C2=O | 7.65%
COCCn1c(C(C)C)nc2oc3ccccc3c(=O)c2c1=O | -0.841%
Cc1ccc(S(=O)(=O)Nc2ccnc(-c3cccnc3)n2)cc1 | 9.13%
COc1ccc(-c2nc(SCC(=O)N3CCCC3)n[nH]2)cc1 | 12.5%
O=S(=O)(NC(=S)Nc1ccccc1)c1ccc(F)cc1 | 16%

SMILES | hERG current change (%, negative = inhibition) at 1uM
CCOc1ccc(C2CC(c3cccc(OC)c3)n3nc(N)nc3N2)cc1 (centres unmarked) | 9.2%
O=C(Nc1ccc(Cc2ccncc2)cc1)c1ccc(Br)o1 | 12.9%
CN(C)/C=C(\C(=O)c1ccc(F)cc1F)c1nnnn1-c1ccccc1 | 15%
CCCCn1c(-c2cccs2)nc2oc3ccccc3c(=O)c2c1=O | 8.04%
CCn1cc(C2=NC(CCSC)CO2)c2ccccc21 (centres unmarked) | 12%
CCOCC(=O)Nc1nc(C)cc(C)n1 | 18.8%
O=C(Cn1nnc(-c2cccc(C(F)(F)F)c2)n1)NNS(=O)(=O)c1cccc(C(F)(F)F)c1 | 13.9%
CC(CCc1ccc(O)cc1)NCc1ccc(Cl)cc1Cl (centres unmarked) | -10.9%
COc1ccc(/C=N/NC(=O)CC2N=C(Cc3ccccc3)NNC2=O)cc1OC (centres unmarked) | 8.59%
COc1ccc(C(=O)Nc2cccc(-c3nnc(-c4ccco4)o3)c2)cc1 | 2.28%
CCOc1ccc(C(=O)C(C)OC(=O)Cn2cnc3c2c(=O)n(C)c(=O)n3C)cc1 (centres unmarked) | 3.29%
Cc1ccc(NC(=S)/N=C(\N)Nc2nc(C)c3cc(C)ccc3n2)c(C)c1 | 3.57%
CCc1nnc(NC(=O)c2ccc(-c3ccc(C(C)=O)cc3)o2)s1 | 6.04%
CCCCOC(=O)c1ccc(NC(=S)NC(=O)c2ccco2)cc1 | 17.5%
CC(C)C[C@H](N)c1cn([C@@H](Cc2ccc(O)cc2)C(=O)N2CCNCC2)nn1.Cl | 10.7%
CC(NS(C)(=O)=O)C(c1cccs1)N1CCN(Cc2ccccc2)CC1 (centres unmarked) | 6.34%
CCN(CC)c1ccc(CN2CCCCCC2)cc1 | 0.566%
O=C(NCCCn1ccnc1)c1cc(Br)c(Br)s1 | 4.15%
CCOC(=O)c1cc(=O)n2nc(-c3ccccc3F)nc2s1 | 14%
Cc1ccc(-c2nc3ccccc3c(=O)n2-c2ccncc2)cc1 | 6.85%
CCCCNC(=O)N(O)C1N(/N=C/c2ccccc2OC)C(=S)SC1(C)C (centres unmarked) | 4.28%
Cc1nnc(SCC(=O)Nc2ccc(F)cc2)n(N)c1=O | -4.05%
COC(=O)c1cccc(NC(=S)N2CCN(c3ccccc3F)CC2)c1 | 11.5%

SMILES | hERG current change (%, negative = inhibition) at 1uM
Cc1ccc(SCC(=O)NC(=O)NC(C)C)c(C)c1 | 9.87%
C=CCN(CC=C)CCOc1cccc2ccccc12.O=C(O)C(=O)O | 14.8%
c1ccc(Cn2nnc3c(Nc4ccc5c(c4)OCO5)nc(C4CC4)nc32)cc1 | -7.89%
OC(CNCCc1c[nH]c2ccccc12)c1ccccc1 (centres unmarked) | 6.46%
Cc1cccc(C)c1NC(=S)NCCc1ccc(O)c(O)c1 | 11.9%
COc1ccc(NS(=O)(=O)c2cc(NC(=O)Cc3cccs3)ccc2C)cc1 | 15.6%
CCC(C)C(NC(=O)c1ccc(Cl)cc1)C(=O)O (centres unmarked) | 15.8%
COc1ccccc1NC(=O)c1[nH]c(C)c(C(C)=O)c1C | 10.9%
CC(=O)Nc1ccc(S(=O)(=O)N(C)CC(=O)N/N=C/c2cccc(O)c2)cc1 | 10%
O=S(=O)(/C=C/c1ccccc1)N1CCN(c2ccccc2)CC1 | 2.24%
COCCOC1CCN(C(=O)c2cc(COc3ccc(F)cc3F)on2)CC1 | 9.99%
Cc1nc(NC(=O)c2oc3ccccc3c2C)sc1C(=O)N(C)C | 2.34%
O=C(COc1ccc(C(=O)c2ccccc2)cc1)NCc1ccc(F)cc1 | -0.422%
CCOc1ccccc1OCC(=O)Nc1nc2ccccc2[nH]1 | 33.6%
C=CCOC(=O)C1=C(C)NC(C)=C(C(=O)OCC=C)C1c1ccco1 | 10.8%
COc1ccc(CNc2ncc(-c3ccc(F)cc3)n2C)cc1OC.O=C(O)C(=O)O | -37.5%
CC(C)c1cc(C(=O)O)n[nH]1 | 17.1%
COc1ccc(S(=O)(=O)n2nc(OC(C)=O)cc2N(C(C)=O)C(C)=O)cc1 | 2.92%
CCN(CC(=O)Nc1c(F)cccc1F)C(=O)c1cccc(S(=O)(=O)NCc2ccccc2)c1 | -0.508%
CCOc1ccccc1C(=O)NC(C(=O)OCC(=O)Nc1nnc(-c2ccccc2)o1)C(C)C (centres unmarked) | -4.62%

Source: PMC4336329 (PLoS ONE, 2015)
